# Data: PubChem BioAssay AID686978 (National Center for Advancing Translational Sciences (NCATS), 2013)
# Values joined by “and” are separate entries in the source; they are usually repeats but may differ in a detail not shown here. Identical values can stand only once. Among all 420,000 compounds or so, about 64,000 (15%) were called active. Inconclusive results, whose numbers are uncertain, are shown with a selection of clear calls. Calls come from the whole dose curve; as a rule, active = well fitted inhibition curve with a large enough effect; inconclusive = small, poorly fitted or top-dose-only effect; inactive = flat fitted curve, though single readings scatter. Potencies beside an inconclusive call are fits to weak or partial responses and may not hold up.
# Assay: qHTS for Inhibitors of human tyrosyl-DNA phosphodiesterase 1 (TDP1): qHTS in cells in absence of CPT; note: nearly all actives have a fitted effect of over 55% in size
# Conditions: DT40 Tdp1-/- hTDP1 cells, no CPT, ATP luminescence, 48 h; activity change, negative = growth inhibition: at 46.2 µM (top of the series)
# Outline: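 Luminescent ATP content (CellTiter-Glo) served as the growth readout. Knockout chicken DT40 cells expressing human TDP1 were exposed to compounds without camptothecin for a minimum 48 hr at 37 °C.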
# % is set by controls: 0 for no effect and ±100 for the full control effect; potency is the fitted concentration of half-maximal effect; tags give direction and shape of the fitted curve.
SMILES,"activity change, negative = growth inhibition",Potency
CCN(CC(=O)NC1CCS(=O)(=O)C1)S(=O)(=O)c1ccc(Cl)cc1C(F)(F)F (stereo unspecified),inactive: -12.5%,
CCOC(=O)N1CCC(=C2c3ccc(Cl)cc3CCc3cccnc32)CC1,,active: 11.9 µM and active: 13 µM
CSc1ccc(CCNC(=O)c2ccc(CS(=O)Cc3ccccc3Cl)o2)cc1 (stereo unspecified),,"inconclusive: 18.4 µM [inhibitor, single point]"
N/C(=N\O)c1ccc([N+](=O)[O-])s1,,"inconclusive: 13 µM [inhibitor, partial curve]"
COC(=O)c1ccccc1NC(=O)C1(S(=O)(=O)c2ccc(Cl)cc2)CC1,,"inconclusive: 29.1 µM [inhibitor, single point]"
O=C(Nc1cccnc1)c1ccc(NS(=O)(=O)c2cc([N+](=O)[O-])ccc2Cl)cc1,inactive: 12.1%,
O=C(Nc1cccc2ncccc12)c1ccc(-c2ccc(Br)cc2)o1,,active: 23.1 µM
O=C(Nc1ccc(C(F)(F)F)cc1)C1CCN(c2cnccn2)CC1,,"inconclusive: 25.9 µM [inhibitor, single point] and inconclusive: 23.1 µM [inhibitor, single point]"
CCCNC(=O)C[C@H]1C[C@H]2c3cc(NC(=O)Nc4ccc(F)cc4)ccc3O[C@H]2[C@@H](CO)O1,,active: 2.31 µM
O=C(CCc1ccccc1)NC1CCCc2ccccc21 (stereo unspecified),inactive: -24.9%,
COc1ccc(CN(C)C(=O)Cc2ccc(S(=O)(=O)N3CCOCC3)s2)cc1OC,,"inconclusive: 0.0164 µM [inhibitor, full curve, poor fit]"
CCc1ccc(OC)c(S(=O)(=O)Nc2ccc(Cc3ccncc3)cc2)c1,,active: 8.2 µM
O=C(NCC1CC1)c1ccc2c(c1)S(=O)(=O)c1cc(Cl)ccc1C2=O,,"inconclusive: 29.1 µM [inhibitor, single point]"
CCc1ccc(CN(C)C(=O)c2ccc3c(=O)n4c(nc3c2)CCC4)cc1,,"inconclusive: 16.4 µM [inhibitor, partial curve, poor fit]"
CCCCCOC(=O)C1=C(C)Nc2nnnn2C1c1ccc(OC)c(OC)c1OC (stereo unspecified),,"inconclusive: 23.1 µM [inhibitor, partial curve]"
CCOC(=O)c1[nH]c2cc3c(cc2c1NC(=O)CN1CCCC1)OCO3,,"inconclusive: 5.17 µM [inhibitor, single point]"
COc1cccc2cc(-c3csc(-c4ccc(Cl)cc4)n3)c(=O)oc12,inactive: -5.13%,
O=C(Cc1ccc(Br)cc1)Nc1nc2ccccc2[nH]1,,active: 2.31 µM
COc1ccc(-c2csc(Nc3ccc(C)cn3)n2)cc1OC,,"inconclusive: 23.1 µM [inhibitor, single point]"
Cc1ccc(S(=O)(=O)N2CCOCC2)cc1C(=O)Nc1ccc(S(=O)(=O)Nc2nccs2)cc1,inactive: -17.8%,
Cc1ccc(C(=O)Nc2ccccc2C(=O)NCc2ccco2)cc1,,"inconclusive: 20.6 µM [inhibitor, single point]"
OC[C@@H]1CN(Cc2ccccc2)C[C@H](n2ccc3c(N4CCCC4)ncnc32)O1,,"inconclusive: 23.1 µM [inhibitor, single point]"
COc1cc(CN2CCCN(C)CC2)c([N+](=O)[O-])cc1OC,inactive: -12.1%,

SMILES,"activity change, negative = growth inhibition",Potency
Nc1c(S(=O)(=O)c2ccccc2)c2nc3ccccc3nc2n1CCN1CCOCC1,,"inconclusive: 25.9 µM [inhibitor, single point]"
S=C(NCCc1ccccc1)Nc1ccccc1,,"inconclusive: 10.3 µM [inhibitor, partial curve]"
COc1ccc(C)cc1S(=O)(=O)NCc1ccccn1,inactive: 1.6%,
Cc1ccc(NC(=S)NCC(C)C)cc1,inactive: -14%,
CCc1ccc(-n2c(SCc3ccccc3C)nc3[nH]ncc3c2=O)cc1,,active: 20.6 µM
COc1ccc(OC)c(-c2csc(NC(=O)CN3C(=O)C4CCCCC4C3=O)n2)c1 (stereo unspecified),inactive: -15.5%,
Clc1ccc(CSc2cc3c(nn2)-c2ccccc2CC3)cc1,,"inconclusive: 18.4 µM [inhibitor, partial curve]"
Cc1ccccc1[C@@H]1C(C#N)=C(N)S[C@H]1C(=O)c1ccccc1,,"inconclusive: 18.4 µM [inhibitor, partial curve]"
FC(F)C(F)(F)C1=CC(c2cccs2)=NCCN1,,"inconclusive: 29.1 µM [inhibitor, single point]"
O=C(CN1CCC(C(=O)c2ccc(F)cc2)CC1)Nc1ccccc1,inactive: -28.3%,
C(=Nc1ccc(/C=C/c2ccnc3ccccc23)cc1)c1cc2c3c(c1)CCCN3CCC2,,active: 11.2 µM
Cc1ccccc1CNC(=O)c1ccc(CSc2nc3cccnc3n2Cc2ccccc2)cc1,,active: 13 µM
Cc1cccc(-n2c(Cc3ccccc3)nnc2SCc2ccc([N+](=O)[O-])cc2)c1,,"inconclusive: 29.1 µM [inhibitor, partial curve, poor fit]"
COc1cc(CCC(=O)Nc2cc(Cl)ccc2N2CCN(C)CC2)cc(OC)c1OC,inactive: -7.29%,
Cc1cc(C)c(S(N)(=O)=O)c(C)c1N(C)S(=O)(=O)c1ccccc1,,"inconclusive: 29.1 µM [inhibitor, single point]"
OC(CN1CCCCCC1)CN(c1ccccc1)c1ccccc1 (stereo unspecified),,"inconclusive: 25.9 µM [inhibitor, single point]"
CC(NC(=O)CCc1ccccc1)c1cc2c(cc1Cl)OCCO2 (stereo unspecified),,"inconclusive: 29.1 µM [inhibitor, single point]"
CCc1c(C)c2ccc(O)c(CN3CCN(c4ccc(OC)cc4)CC3)c2oc1=O,,"inconclusive: 18.4 µM [inhibitor, single point]"
CCOC(=O)N1CCN(C(=O)c2cc3cc(Cl)ccc3[nH]2)CC1,,"inconclusive: 25.9 µM [inhibitor, partial curve]"
Cc1ccc(CCNC(=O)c2ccc(CNS(=O)(=O)c3ccccc3)cc2)cc1,,active: 5.8 µM
CCN(CC)C(=O)c1ccc(S(=O)(=O)NCc2cccnc2)cc1,,"inconclusive: 14.6 µM [inhibitor, partial curve]"
Cc1ccc(NCc2ccccc2O)c(C)c1,inactive: -14.3%,
N[C@H](CC(=O)O)C(=O)O,,"inconclusive: 33.5 µM [inhibitor, single point]"
